In all, about 340,000 compounds went through this assay and about 6,900 (2%) were called active. Cut-off read from the data, not from the text of the source: active = inhibition above about 30%; inactive = below that, where a call was filed. Only a part is listed here, and it is no random draw. Where no call is shown, the source filed none.
biological target: D(2) dopamine receptor (Homo sapiens) (UniProt P14416); test: HTS Assay for Allosteric Antagonists of the Human D2 Dopamine Receptor: Primary Screen for Antagonists; conditions: HEK293 TREx D2 cells, calcium flux, dopamine EC80; at 10 µM; stronger effect = higher value; note: 0% is about no effect
Procedure, shortened: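 Measurement of antagonist activity uses fluorescent calcium dye in inducible HEK293 T-REx D2 cells: 10 s baseline, compound addition with 180 s read, EC80 dopamine addition with a further 180 s read.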

Sequence of UniProt P14416 (P14416 whole entry, looked up): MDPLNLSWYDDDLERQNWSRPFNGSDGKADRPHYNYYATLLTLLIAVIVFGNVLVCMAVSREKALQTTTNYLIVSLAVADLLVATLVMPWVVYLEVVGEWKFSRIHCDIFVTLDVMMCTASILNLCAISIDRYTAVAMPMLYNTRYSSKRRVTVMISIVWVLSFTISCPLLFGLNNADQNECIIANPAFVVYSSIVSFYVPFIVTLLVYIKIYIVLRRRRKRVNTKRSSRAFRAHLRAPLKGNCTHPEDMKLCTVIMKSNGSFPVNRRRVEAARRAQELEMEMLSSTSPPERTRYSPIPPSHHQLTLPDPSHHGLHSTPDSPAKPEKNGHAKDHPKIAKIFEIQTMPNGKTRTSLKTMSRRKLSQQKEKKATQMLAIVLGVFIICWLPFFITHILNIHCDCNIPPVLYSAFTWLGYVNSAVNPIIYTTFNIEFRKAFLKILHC

Row | SMILES | inhibition
1 | CCOC(=O)C1CCN(C(=O)Cn2ncc3c4ccccc4n(C)c3c2=O)CC1 | 9.12%
2 | Cc1oc(-c2cccc(Cl)c2)nc1CSCC(=O)NCc1ccccc1Cl | -17.7%
3 | COc1ccccc1Cn1c(SCC(=O)C(C)(C)C)nc2ccccc2c1=O | 8.06%
4 | CCOC(=O)c1c(C)oc2nc(C)nc(N3CCN(c4ccc(OC)cc4)CC3)c12 | -10.4%
5 | COC(=O)CN1C(C(=O)c2ccccc2)=C(OC(=O)c2ccc(C)cc2)c2ccccc2S1(=O)=O | 12.2%
6 | Clc1cccc(CSc2ccc(-c3cccs3)nn2)c1 | 20.7%
7 | O=C(c1cccn1-c1nnc(N2CCCCC2)s1)N1CCN(c2ccccc2)CC1 | -6.19%
8 | CCOC(=O)c1c(C)oc2ncnc(Nc3cc(Cl)ccc3OC)c12 | -5.17%
9 | Cc1ccc2nc(COc3ccccc3NC(=O)COc3ccccc3Cl)cc(=O)n2c1 | -23.3%
10 | CSc1ncc(C(=O)NCc2ccc(C)cc2)c(-c2ccccc2)n1 | 10.5%
11 | Cc1ccc(CNC(=O)C2CCN(S(=O)(=O)c3c(C)noc3/C=C/c3c(C)cc(C)cc3C)CC2)cc1 | 18.4%
12 | CCOc1cccc(NC(=O)C2CC(=O)N(C)C(=Nc3ccc(F)cc3)S2)c1 (stereo unspecified) | 26.9%
13 | CCOc1ccccc1NC(=O)CN1C(=O)COc2ccc(S(=O)(=O)N3CCCCC3)cc21 | 9.26%
14 | Cn1cc(C(c2ccccc2)c2ccc(Cl)s2)c2ccccc21 (stereo unspecified) | 2.38%
15 | Cn1c(=O)c(NC2CCCCC2)c2c3c(cccc31)C(=O)c1ccccc1-2 | active: 59.6%
16 | CCOC(=O)c1ccc(NC(=O)Cn2ncc3c(C)n(Cc4ccccc4F)c(C)c3c2=O)cc1 | -3.31%
17 | COC(=O)c1ccc(NC(=O)Cn2c(=O)nc(-c3ccccc3)c3ccccc32)cc1 | -23.7%
18 | COc1cc2ccccc2cc1C(=O)Nc1ccc2oc(-c3ccc(Cl)cc3)nc2c1 | 3.01%
19 | Cc1ccc2c(=O)cc(C(=O)Nc3c(C(=O)Nc4cccc(Cl)c4)oc4ccccc34)oc2c1 | 9.91%
20 | O=C(Nc1ccc(C(=O)OCc2cc(=O)n3c4c(sc3n2)CCCC4)cc1)c1ccc(Cl)cc1 | 0.169%
21 | CC(C)c1ccc(NC(=O)Nc2csc3c2CCCC3)cc1 | 15%

Row | SMILES | inhibition
22 | CCCCN(C)CC(O)Cn1cc(/C=C/C(=O)c2ccc(C)cc2)c2ccccc21 (stereo unspecified) | 7.27%
23 | Cc1cc(C(=O)NCc2ccc(S(N)(=O)=O)cc2)c(C)o1 | active: 30.5%
24 | Cc1ccc(S(=O)(=O)C(CNC(=O)Cc2ccc(Cl)cc2)c2cccs2)cc1 (stereo unspecified) | -2.8%
25 | CCOc1ccc(CNC(=O)c2ccc3c(c2)nnn3C2CCCC2)cc1 | -0.188%
26 | CCc1ccccc1NC(=O)c1cc2nc(-c3ccc(OC)c(OC)c3)cc(C(F)(F)F)n2n1 | 12.8%
27 | Cc1cccc(Cn2c(=O)n(Cc3ccc4c(c3)OCO4)c(=O)c3oc4ccccc4c32)c1 | -7.78%
28 | O=c1oc2c(CN3CCCC3)c(O)ccc2cc1-c1ccccc1 | 0.726%
29 | CCOCCCNC(=O)c1c(NC(=O)c2cc(=O)c3ccccc3o2)sc2c1CCC2 | 2.73%
30 | COc1ccccc1N1CCN(C(=O)Nc2cn(CC(C)C)c(=O)c3ccccc23)CC1 | 14.9%
31 | CC(C)C(=O)Nc1cccc(C(=O)Nc2nnc(CC(C)(C)C)s2)c1 | -3.01%
32 | Cc1ccc(CCNC(=O)c2c(C)oc3nc(C)nc(N4CCOCC4)c23)cc1 | -3.52%
33 | CCN(CCCNC(=O)c1cc(Nc2ccc(OC)cc2OC)nc2ccccc12)c1cccc(C)c1 | 23%
34 | Cn1cc(-c2cc3n(n2)CCC(=O)N3CC(=O)NCc2ccc(Cl)cc2)c2ccccc21 | -0.309%
35 | O=C(COc1ccccc1[N+](=O)[O-])N1CCC(c2nc3ccccc3o2)CC1 | 2.52%
36 | Cc1c(CC(=O)NCCc2ccccc2F)c(=O)oc2cc(O)c(Cl)cc12 | 2.41%
37 | Cc1ccc(-n2ncc3c(N(CC(C)C)CC(C)C)ncnc32)c(C)c1 | -6.26%
38 | Cc1ccc(NC(=O)c2c(C)oc3ccc(O)c(CN4CCCCCC4)c23)cc1 | 5.57%
39 | CC(C)S(=O)(=O)c1oc(-c2cccs2)nc1S(=O)(=O)c1ccc(F)cc1 | -9.44%
40 | Nc1nonc1C(=O)NCCNCc1cccc(Cl)c1Cl | -3.16%
41 | O=C1CC(c2cccc(O)c2)c2cc3c(cc2N1)OCO3 (stereo unspecified) | 17.4%
42 | Cc1ccc(OCCn2c(-c3ccc(Br)cc3)nc3ccccc3c2=O)cc1C | -10.5%

Row | SMILES | inhibition
43 | COc1ccc(NC(=O)Cn2c(=O)n(Cc3ccccc3Cl)c(=O)c3cc(OC)c(OC)cc32)cc1OC | -0.32%
44 | CCCCN(CC)CCCNC(=O)C1CCCN(c2ncnc3c2nc2n3CCCCC2)C1 (stereo unspecified) | -2.57%
45 | COc1ccc(-c2onc(C)c2C)cc1S(=O)(=O)N1CCN(c2ccc(Cl)cc2)CC1 | 7.5%
46 | Cc1cccc(NC(=O)CCCN2C(=O)c3ccccc3C2=O)n1 | active: 33.9%
47 | O=C(CCN1CCN(c2ccccc2)CC1)Nc1ccccc1 | active: 53.5%
48 | CCc1ccc(-c2nc(CS(=O)CC(=O)NCCCN3CCC(C)CC3)c(C)o2)cc1 (stereo unspecified) | active: 30.3%
49 | CC(CNC(=O)C1CCN(S(=O)(=O)c2ccc3c(ccn3C)c2)CC1)c1ccccc1 (stereo unspecified) | -19.2%
50 | CC(C)OC(=O)c1c(NC(=O)COc2cccc(Br)c2)sc2c1CCCC2 | -2.4%
51 | O=C(CSc1nc2c([nH]c3ccccc32)c(=O)n1-c1ccccc1)N1CCOCC1 | 5.1%
52 | Cc1ccc(-c2nnc(Nc3ccc(OCC(N)=O)cc3)c3ccccc23)cc1S(=O)(=O)N(C)C | -12.7%
53 | O=C(C1CCN(S(=O)(=O)N2CCOCC2)CC1)N1CCc2ccccc21 | active: 35.6%
54 | CC(C)(C)c1ccc(C2=NC(C)(C)N(CC(=O)Nc3ccc(F)c(F)c3)C2=O)cc1 | -3.3%
55 | COc1ccc(S(=O)(=O)N2CCC3(CC2)CC(=O)c2ccccc2O3)cc1OC | active: 45.2%
56 | N=c1sccn1CC(=O)NCCc1ccc(Cl)cc1Cl | active: 39%
57 | COc1cccc2c1Oc1ncccc1N(C(=O)CCC(=O)NC(C)C)C2 | 4.49%
58 | CCc1c(C)sc2c1CCN(C(=O)Nc1cc(Cl)c(OC)cc1OC)C2c1ccccc1 (stereo unspecified) | -15.1%
59 | CCC(=O)N1CCc2cc(CNS(=O)(=O)c3ccc(NC(=O)CC(C)C)cc3)ccc21 | 16.5%
60 | CCC(=O)N1CCc2cc(Br)cc(S(=O)(=O)CCC(=O)Nc3ccc(C)c(F)c3)c21 | -1.12%
61 | O=S(=O)(NCC(c1cccnc1)N1CCN(Cc2ccccc2)CC1)c1cc(F)ccc1F (stereo unspecified) | active: 43.2%

From PubChem BioAssay AID485344 (National Center for Advancing Translational Sciences (NCATS), 2010)
